Screen size: about 52,000 compounds; about 1,700 (3.3%) were called active. Cut-off read from the data, not from the text of the source: active = survival mostly below about 52% (no sharp cut-off); inactive = mostly above about 56%. Some of the results follow.
Tested on: Wild type
Assay: growth inhibition of S. aureus wild type versus tarO mutant, primary screen, teichoic acid synthesis inhibitors, RN4220, OD600 (AID 463173)
Conditions: S. aureus RN4220 wild type/DeltatarO growth, OD600, 18 h, hits give low values, screened at 18.75 µg/mL (by protocol)

Row | SMILES | survival
1 | Cc1cccc(CCNC(=O)CCc2c(C)nc3ncnn3c2C)c1 | inactive: 71%
2 | COc1ccc(N2CCN(C(=O)c3sc4nc5n(c(=O)c4c3C)CCC5)CC2)cc1 | inactive: 120%
3 | COCCNC(=O)c1ccc2c(=O)n(CCOC)c(SCC(=O)c3c[nH]c4ccccc34)nc2c1 | active: -1%
4 | CCOC(=O)c1c(NC(=O)c2cc3nc(-c4ccccc4)cc(C(F)(F)F)n3n2)sc2c1CCC(C)C2 (configuration not stated) | inactive: 65%
5 | O=C1CSC(=O)N1Cc1cc2c(cc1Cl)OCO2 | inactive: 100%
6 | CCCNC(=O)c1cnc2sc(N3CCCCCC3)nn2c1=O | inactive: 83%
7 | Cc1ccccc1C(=O)OCc1cc(=O)n2c(C)csc2n1 | inactive: 129%
8 | CCc1nn(CC(=O)NCc2ccc(OC)c(OC)c2)c(=O)c2cc3sc(C)cc3n12 | inactive: 72%
9 | Cn1c(CN2CCOCC2)nnc1SCC(N)=O | inactive: 114%
10 | CCOc1ccc(C(=O)Nc2ccccc2OCc2cc(=O)n3ccccc3n2)cc1 | inactive: 131%
11 | Cc1cc(C(=O)Nc2cccc(F)c2)c2c(C)nn(-c3cccc(Cl)c3C)c2n1 | inactive: 76%
12 | COc1ccccc1OCCCCn1c(-c2ccc(Cl)cc2)nc2ccccc2c1=O | inactive: 52%
13 | Brc1ccc(NCc2ccco2)cc1 | inactive: 124%
14 | CN(C)c1ccc(C(=O)Nc2cccc(-c3nc4cccnc4s3)c2)cc1 | inactive: 68%
15 | CCc1ccc(-c2cn3c(n2)SCC3)cc1 | inactive: 111%
16 | COc1ccc(CCNC(=O)c2nc(SCc3ccc(C)cc3)ncc2Cl)cc1OC | inactive: 97%
17 | CCOC(=O)Cn1c(=O)n(-c2ccccc2OC)c2nc(-c3ccccc3F)nc(C(N)=O)c21 | inactive: 71%
18 | Cc1ccc(CCNC(=O)c2cc(C)nc3c2c(C)nn3-c2ccc(C)cc2)cc1 | inactive: 19%
19 | O=C(Nc1ccc(C(F)(F)F)cc1)C1CCN(c2cnccn2)CC1 | inactive: 89%
20 | Cc1ccc2cc3c(N)c(-c4nnc(-c5ccccc5)o4)sc3nc2c1 | inactive: 110%
21 | COc1cccc2cc(-c3csc(-c4ccc(Cl)cc4)n3)c(=O)oc12 | inactive: 125%
22 | Cc1cc(C)c(C#N)c(S(C)(=O)=O)n1 | inactive: 116%
23 | COc1cccc(Cn2c(SCC(=O)N(C)c3ccccc3)nc3ccccc32)c1 | active: -6%

Row | SMILES | survival
24 | CCc1ccc(-n2c(SCc3ccccc3C)nc3[nH]ncc3c2=O)cc1 | inactive: 83%
25 | COC(=O)c1ccc(Cn2c(SCc3ccccc3)nc3ccncc32)cc1 | inactive: 66%
26 | Cc1ccc(-c2nc(CS(=O)(=O)CC(=O)NCc3ccc(Cl)cc3)c(C)o2)cc1 | inactive: 92%
27 | Cc1ccccc1CNC(=O)c1ccc(CSc2nc3cccnc3n2Cc2ccccc2)cc1 | inactive: 47%
28 | O=C(CN1CCC(C(=O)c2ccc(F)cc2)CC1)Nc1ccccc1 | inactive: 100%
29 | CCc1c(C)c2ccc(O)c(CN3CCN(c4ccc(OC)cc4)CC3)c2oc1=O | inactive: 79%
30 | CC1CCC(Nc2nnnn2-c2ccccc2)CC1 (configuration not stated) | inactive: 109%
31 | O=C(CN1CCSc2ccccc21)N1CCCCC1 | inactive: 77%
32 | Cc1ccc(CCNC(=O)c2ccc(CNS(=O)(=O)c3ccccc3)cc2)cc1 | inactive: 92%
33 | CCOc1ccccc1NC(=O)Cn1c(=O)n(-c2ccc(F)cc2)c(=O)c2c3c(sc21)CN(C(C)=O)CC3 | inactive: 114%
34 | CCCN(C(=O)COc1cc(=O)n(CC)c2ccccc12)c1ccc(C(C)C)cc1 | active: -7%
35 | CCc1ccc(-n2nc(C)c3c(C(=O)Nc4cc(C)c(Cl)cc4OC)cc(C)nc32)cc1 | inactive: 80%
36 | CCc1ccc(-c2nn(CC(=O)NCc3ccccc3)c3c2cnc2ccc(C)cc23)cc1 | inactive: 73%
37 | CC(C)c1ccc(NC(=O)CCS(=O)(=O)c2cccc3nonc23)cc1 | inactive: 98%
38 | CC(=O)Nc1ccc(NC(=O)c2cc3sccc3n2Cc2ccc(Cl)cc2)cc1 | inactive: 91%
39 | Cc1cc(C)cc(NC(=O)Nc2ccccc2OCc2cc(=O)n3ccccc3n2)c1 | inactive: 72%
40 | COc1cc(NC(=O)Cn2cnc3c2c(=O)n(C)c(=O)n3C)c(OC)cc1Cl | inactive: 74%
41 | CCOC(=O)c1c(NC(=O)/C(C#N)=C/c2ccccc2)sc2c1CCC2 | inactive: 72%
42 | CCOc1ccccc1NC(=O)c1c(NCc2cccs2)sc2c1CCCCC2 | inactive: 74%
43 | CCOc1ccc(NC(=O)c2c(NC(=O)c3ccccc3F)sc3c2CCC3)cc1 | inactive: 134%
44 | CCOc1cc(/C=C(\C#N)C(=O)Nc2ccc(C)cc2)ccc1OCc1cc(=O)n2nc(CC)sc2n1 | inactive: 94%
45 | Cc1cc(C)nc(SCCC(=O)Nc2ccccc2)n1 | inactive: 106%
46 | O=C(COc1ccccc1)NCC1CCCO1 (configuration not stated) | inactive: 115%

Row | SMILES | survival
47 | COc1ccc2c(c1)CC(C(=O)NCCCN1CCN(c3ccccc3F)CC1)CO2 (configuration not stated) | inactive: 68%
48 | C#CCn1cnc2c(cnn2-c2ccc(F)cc2)c1=O | inactive: 78%
49 | CCC(=O)N1CCc2cc(Br)cc(S(=O)(=O)CCC(=O)Nc3ccc(C)c(F)c3)c21 | inactive: 72%
50 | Cc1ccc(C)c2nc(SCC(=O)OC(C)C)c(C#N)cc12 | inactive: 100%
51 | COc1cccc2c1Oc1ncccc1N(C(=O)CCC(=O)NC(C)C)C2 | inactive: 70%
52 | CCC(=O)N1CCc2cc(CNS(=O)(=O)c3ccc(NC(=O)CC(C)C)cc3)ccc21 | inactive: 75%
53 | CCc1c(C)sc2c1CCN(C(=O)Nc1cc(Cl)c(OC)cc1OC)C2c1ccccc1 (configuration not stated) | inactive: 45%
54 | CCOC(=O)/C(C#N)=C/c1ccc(N2CCCCC2)o1 | inactive: 126%
55 | CCN(CC)S(=O)(=O)c1ccc(NC(=O)c2c(C)oc3ncnc(N4CCOCC4)c23)cc1 | inactive: 73%
56 | CCn1c(C)c(C)c2cc(C(=O)NCc3ccc(OC)cc3OC)ccc21 | inactive: 84%
57 | Cc1[nH]c2ccc(-c3nnc(SCc4ccc(F)cc4)o3)cc2c1C | inactive: 103%
58 | COc1ccc2c(c1)-c1nc(/N=C/c3ccc(C)o3)sc1CC2 | inactive: 114%
59 | CC(C)(C)c1ccc(C2=NC(C)(C)N(CC(=O)Nc3ccc(F)c(F)c3)C2=O)cc1 | inactive: 98%
60 | Cc1ccc(-c2nnc(Nc3ccc(OCC(N)=O)cc3)c3ccccc23)cc1S(=O)(=O)N(C)C | inactive: 109%
61 | COc1ccc(-c2onc(C)c2C)cc1S(=O)(=O)N1CCN(c2ccc(Cl)cc2)CC1 | inactive: 57%
62 | CC(C)OC(=O)c1c(NC(=O)COc2cccc(Br)c2)sc2c1CCCC2 | inactive: 102%
63 | O=C(CSc1nc2c([nH]c3ccccc32)c(=O)n1-c1ccccc1)N1CCOCC1 | inactive: 75%
64 | CC(CNC(=O)C1CCN(S(=O)(=O)c2ccc3c(ccn3C)c2)CC1)c1ccccc1 (configuration not stated) | inactive: 73%
65 | CCN(CC)CCn1c(-c2ccccc2)csc1=Nc1ccccc1 | inactive: 45%
66 | Cc1ccc(OCCn2c(-c3ccc(Br)cc3)nc3ccccc3c2=O)cc1C | inactive: 70%
67 | O=C1CC(c2cccc(O)c2)c2cc3c(cc2N1)OCO3 (configuration not stated) | inactive: 85%
68 | CCCCN(CC)CCCNC(=O)C1CCCN(c2ncnc3c2nc2n3CCCCC2)C1 (configuration not stated) | inactive: 71%
69 | COc1ccc(NC(=O)Cn2c(=O)n(Cc3ccccc3Cl)c(=O)c3cc(OC)c(OC)cc32)cc1OC | inactive: 73%

Row | SMILES | survival
70 | Nc1nonc1C(=O)NCCNCc1cccc(Cl)c1Cl | inactive: 71%
71 | O=C(COc1ccccc1[N+](=O)[O-])N1CCC(c2nc3ccccc3o2)CC1 | inactive: 78%
72 | Cc1c(CC(=O)NCCc2ccccc2F)c(=O)oc2cc(O)c(Cl)cc12 | inactive: 72%
73 | O=C(O)c1ccc(S(=O)(=O)c2ccc3c(c2)C(=O)N(C2CCCCC2)C3=O)cc1 | inactive: 109%
74 | Cc1ccc(NC(=O)c2c(C)oc3ccc(O)c(CN4CCCCCC4)c23)cc1 | inactive: 108%
75 | CC(C)(C)NC(=O)CSc1nncn1NCc1ccccc1 | inactive: 99%
76 | CC(C)S(=O)(=O)c1oc(-c2cccs2)nc1S(=O)(=O)c1ccc(F)cc1 | inactive: 22%
77 | Cc1ccc(-n2ncc3c(N(CC(C)C)CC(C)C)ncnc32)c(C)c1 | inactive: 71%
78 | CCN(CCCNC(=O)c1cc(Nc2ccc(OC)cc2OC)nc2ccccc12)c1cccc(C)c1 | inactive: 92%
79 | O=C(CN1CCC(c2nc3ccccc3s2)CC1)N1CCCCC1 | inactive: 98%
80 | Cc1ccc(CCNC(=O)c2c(C)oc3nc(C)nc(N4CCOCC4)c23)cc1 | inactive: 124%
81 | Cn1cc(-c2cc3n(n2)CCC(=O)N3CC(=O)NCc2ccc(Cl)cc2)c2ccccc21 | inactive: 75%
82 | CCOc1ccc(CNC(=O)c2ccc3c(c2)nnn3C2CCCC2)cc1 | inactive: 72%
83 | Cc1cccc(Cn2c(=O)n(Cc3ccc4c(c3)OCO4)c(=O)c3oc4ccccc4c32)c1 | inactive: 88%
84 | CCc1ccccc1NC(=O)c1cc2nc(-c3ccc(OC)c(OC)c3)cc(C(F)(F)F)n2n1 | inactive: 79%
85 | Cc1ccc(S(=O)(=O)C(CNC(=O)Cc2ccc(Cl)cc2)c2cccs2)cc1 (configuration not stated) | inactive: 94%
86 | CC(C)c1c(O)nc(SCCN2CCOCC2)[nH]c1=O | inactive: 95%
87 | CCc1ccc2oc(-c3ccc(N)cc3)nc2c1 | inactive: 115%
88 | CC(C)C(=O)Nc1cccc(C(=O)Nc2nnc(CC(C)(C)C)s2)c1 | inactive: 73%
89 | O=c1oc2c(CN3CCCC3)c(O)ccc2cc1-c1ccccc1 | inactive: 140%
90 | COc1ccccc1N1CCN(C(=O)Nc2cn(CC(C)C)c(=O)c3ccccc23)CC1 | inactive: 81%
91 | CCOCCCNC(=O)c1c(NC(=O)c2cc(=O)c3ccccc3o2)sc2c1CCC2 | inactive: 80%
92 | COc1cc2ccccc2cc1C(=O)Nc1ccc2oc(-c3ccc(Cl)cc3)nc2c1 | inactive: 91%
